Assay results as given in publication PMC4336329 (PLoS ONE, 2015).
Hit rate of the full screen: of about 310,000 compounds, about 14,000 (4.5%) showed an effect of 50% or more. The effect is printed as a negative number. This is one part of the list.

target: human ether-à-go-go-related gene (hERG) potassium channel (human, UniProt Q12809); test: primary screen, population patch clamp on CHO cells stably expressing hERG
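Further: peak tail current of the secondary pulse compared with the same well before compound.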

human ether-à-go-go-related gene (hERG) potassium channel, sequence (Q12809 whole entry, looked up): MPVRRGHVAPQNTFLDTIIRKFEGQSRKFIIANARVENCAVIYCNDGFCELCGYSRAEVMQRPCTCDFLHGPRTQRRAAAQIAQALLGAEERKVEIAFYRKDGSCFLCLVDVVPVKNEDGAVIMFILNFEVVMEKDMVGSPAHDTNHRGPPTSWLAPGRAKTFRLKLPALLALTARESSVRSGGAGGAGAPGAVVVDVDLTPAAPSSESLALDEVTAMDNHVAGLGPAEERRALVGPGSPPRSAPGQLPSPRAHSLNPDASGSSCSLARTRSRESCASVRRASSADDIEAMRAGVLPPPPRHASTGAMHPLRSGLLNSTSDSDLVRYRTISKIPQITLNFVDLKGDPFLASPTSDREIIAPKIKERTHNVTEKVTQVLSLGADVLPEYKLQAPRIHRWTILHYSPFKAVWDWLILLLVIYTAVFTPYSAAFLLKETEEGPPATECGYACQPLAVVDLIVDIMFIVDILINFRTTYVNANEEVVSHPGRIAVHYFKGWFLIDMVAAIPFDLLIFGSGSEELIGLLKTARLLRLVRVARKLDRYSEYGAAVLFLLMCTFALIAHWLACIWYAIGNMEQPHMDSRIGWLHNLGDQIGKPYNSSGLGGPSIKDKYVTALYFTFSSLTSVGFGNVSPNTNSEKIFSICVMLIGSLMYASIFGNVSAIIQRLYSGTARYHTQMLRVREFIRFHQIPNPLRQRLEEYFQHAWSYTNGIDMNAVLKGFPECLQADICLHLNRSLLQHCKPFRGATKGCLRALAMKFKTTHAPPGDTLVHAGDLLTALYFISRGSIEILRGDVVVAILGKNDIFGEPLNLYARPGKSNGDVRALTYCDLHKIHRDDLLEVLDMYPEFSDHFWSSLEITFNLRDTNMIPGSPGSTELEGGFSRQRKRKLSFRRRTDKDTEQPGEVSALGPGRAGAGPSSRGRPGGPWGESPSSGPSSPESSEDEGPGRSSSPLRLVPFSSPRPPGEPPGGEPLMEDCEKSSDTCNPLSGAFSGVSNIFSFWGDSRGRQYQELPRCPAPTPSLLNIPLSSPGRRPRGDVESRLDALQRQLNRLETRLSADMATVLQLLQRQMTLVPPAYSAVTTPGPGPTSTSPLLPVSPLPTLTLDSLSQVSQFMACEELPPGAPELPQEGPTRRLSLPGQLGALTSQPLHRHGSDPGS

Compound | hERG current change (%, negative = inhibition) at 10uM [%]
COc1ccc(Cn2nnnc2C(c2cccs2)N2CCN(c3ccccc3)CC2)cc1 (stereo not drawn) | 5.47
Cc1ccc(S(=O)(=O)/C(C#N)=C/c2c(N3CCOCC3)nc3c(C)cccn3c2=O)cc1 | -56
CCCOc1ccc(/C=C/c2c([N+](=O)[O-])c(=O)n(C)c(=O)n2C)cc1 | 14.5
NNC(=S)Nc1ccc(Cl)cc1 | 14.9
CC(C)(C)NC(=S)NC(=O)C12CCC3CC(CC(C3)C1)C2 | 6.45
Cn1c(SC(C(=O)Nc2ccc(F)cc2)c2ccccc2)nc2ccccc21 (stereo not drawn) | 6.21
CCN=C1S/C(=C\c2cn(CC(=O)NCc3ccco3)c3ccccc23)C(=O)N1CC | 19.9
Cc1ccc(-c2csc3ncnc(SCC(=O)O)c23)cc1 | 4.89
O=C(Cc1ccsc1)Nc1ccc(Cl)cc1Cl | 18.4
COCCN(C(=O)CCC(=O)Nc1cc(C)on1)C(C(=O)NC(C)(C)C)c1cccc(OC)c1OC (stereo not drawn) | 12.1
COC(=O)c1ccc(C(=O)OC)c(NC(=O)CS(=O)(=O)Cc2ccccc2)c1 | -53.2
Cc1ccc2occ(/C=N/NC(=O)c3ccccc3C)c(=O)c2c1 | 16.3
N#Cc1c2c(c(NCCCN3CCOCC3)n3c1nc1ccccc13)CCC2 | -48.5
CCc1ccc(-c2cc(C)no2)cc1S(=O)(=O)Nc1cc(C)on1 | 10.3
COc1cccc(-c2c(C(=O)N/N=C/c3ccoc3)nnn2-c2nonc2N)c1 | -9.92
COc1ccc(C(=O)N(Cc2ccccc2)c2cccc(C)c2)c(OC)c1OC | -14.5
CCOC(=O)c1c(C)c(C(=O)NCc2ccccn2)c(C)n1CC | 12.1
CCOC1(OCC)N=C(N)C2(C#N)C(c3ccc(NC(C)=O)cc3)C12C#N (stereo not drawn) | 13.8
CCOC(=O)N1CCN(c2nc(C(F)(F)F)nc3c(C)cc(C)cc23)CC1 | -1.36
COc1cc(NS(=O)(=O)c2ccc(NC(=O)COc3cccc(C)c3)cc2)nc(OC)n1 | 10.3
Cc1ccccc1OCc1nc2ccccc2n1C | -6.4

Compound | hERG current change (%, negative = inhibition) at 10uM [%]
CCN(CC)C(=O)Cn1cc(C(=O)C(=O)Nc2ccc3c(c2)OCCO3)c2ccccc21 | 10.4
COCCNC(=O)C(c1ccc(C)o1)N(C(=O)c1snc(C(N)=O)c1N)c1cc(C)cc(C)c1 (stereo not drawn) | -28.5
Cc1cc2c(cc1S(=O)(=O)CCC(=O)NC1CCCCC1C)OCC(=O)N2 (stereo not drawn) | -53
Cc1ccc(N(CC(=O)NCc2ccncc2)S(C)(=O)=O)cc1Cl | 9.96
O=C(CSc1nnc(-c2ccccc2O)o1)N1CCc2ccccc2C1 | 12.5
CCOc1cc(C(=O)Nc2cc(C)ccc2C)ccc1OCC(=O)N1CCCCC1 | 17.1
COc1ccc(/C=c2/sc3n(c2=O)NC2(c4ccccc4)N(C)C(=O)N(C)C2(c2ccccc2)N=3)cc1 (stereo not drawn) | 8.54
Cn1ccc(-c2ccccc2)n1 | 12.9
COCCn1c(SCC(=O)Nc2cc(C)on2)nnc1-c1c[nH]c2ccccc12 | -30.7
CN(C)C(=O)N1CCN(c2nc(-c3ccccc3)cs2)CC1 | 3.19
CC1(C)Cc2cccc(OCC(=O)Nc3cccnc3)c2O1 | -0.463
O=C(c1ccc(Cn2c(=S)[nH]c3cc4c(cc3c2=O)OCO4)cc1)N1CCN(c2ccccc2)CC1 | 14.1
COc1ccc(C(=O)NC(=S)Nc2ccc(Cl)c(C(=O)O)c2)cc1 | 17.9
CCC(C)(C(=O)NC1CCCC1)N(Cc1ccco1)C(=O)c1ccc2c(c1)OCO2 (stereo not drawn) | 1.65
CC(C)(C)C(C(Oc1ccc(Cl)cc1)n1cncn1)n1nnnc1C(c1cccc(Cl)c1)N1CCCCC1 (stereo not drawn) | -5.11
COc1ccccc1/C=C/c1onc(C)c1S(=O)(=O)N1CCC(C(=O)NC(C)C)CC1 | -7.1
CC1CCCCN1C(=O)CSc1nc2ccccc2n1CC(=O)N1CCc2ccccc21 (stereo not drawn) | -11.7
CCOC(=O)c1sc(-c2ccccn2)nc1C | 10.4
Fc1ccc(OCCOCCN2CCCC2)cc1 | -12.6
O=C(O)/C=C/C(=O)Nc1ccc(Oc2ncnc3cc(Cl)ccc23)nc1 | 18.4
COc1ccc(Cl)cc1S(=O)(=O)N1CCCC(C(=O)NCc2ccccn2)C1 (stereo not drawn) | -15.1

Compound | hERG current change (%, negative = inhibition) at 10uM [%]
O=C(O)CCn1cnc2ccccc2c1=O | 18.4
O=C(Nc1ccccn1)C1CCN(S(=O)(=O)c2cccs2)CC1 | -2.38
CC(Nc1ccccc1N1CCCCC1)C(=O)N1CCc2ccccc21 (stereo not drawn) | 2.19
c1ccc(Cn2nnc(-c3ccccc3)n2)cc1 | -19.3
C/C(CC(=O)Nc1cc(C)ccn1)=N\NC(=O)C(=O)NC(C)C | 12.5
CCCCc1ccc(NC(=S)Nc2cccnc2)cc1 | -4.62
CCOC(=O)c1c(C)[nH]c(C(=O)Cn2nnc(-c3ccccc3Cl)n2)c1C | 11.2
CCn1c(NCc2cc(Br)ccc2NS(=O)(=O)c2ccc(C)cc2)nc2ccccc21 | 10.4
Cc1ccc(C(=O)N/C(=C\c2cn(C)c3ccccc23)C(=O)NCCCN2CCOCC2)cc1 | 0.137
Cc1cc(C(=O)OCC(=O)NC(C)C)c2ccccc2n1 | -7.74
COc1ccc2sc(N(CCCN(C)C)C(=O)c3ccc(S(=O)(=O)N4CCCc5ccccc54)cc3)nc2c1.Cl | -14.4
CCOc1ccc(S(=O)(=O)N(C)c2ccc(OCC(=O)Nc3nc(-c4cc(OC)ccc4OC)cs3)cc2)cc1 | 5.82
CCN(CC)CCCN(C(=O)Cn1nnc(-c2ccc(OC)c(OC)c2)n1)C(C(=O)NC(C)(C)C)c1ccc(F)cc1 (stereo not drawn) | -74.5
COc1c(Cl)cnn(-c2cccc(C)c2)c1=O | 17.7
COc1ccc(OC)c(NC(=O)c2[nH]c(C)c(C(C)=O)c2C)c1 | 8.38
Cc1cccc(NC(=O)N2CCN(Cc3ccc(Cl)cc3)CC2)c1 | -50.7
O=C(Nc1cccc(S(=O)(=O)NC2=NCCC2)c1)C1CCCCC1 | 15
COc1ccc(OC)c(C2=NOC(C(=O)Nc3ccccc3SC)C2)c1 (stereo not drawn) | -3.41
CCCC(C(=O)NCCC(C)C)N(Cc1ccc(OC)cc1)C(=O)c1snc(C(N)=O)c1N (stereo not drawn) | -16.7
CCCc1nn2c(=O)cc(CSCC(=O)Nc3ccc(OC)cc3)nc2s1 | 0.945
Cc1cccc(N2CCN(C(=O)CCN3C(=O)C4C5C=CC(C5)C4C3=O)CC2C)c1 (stereo not drawn) | -18.2

Compound | hERG current change (%, negative = inhibition) at 10uM [%]
CCCN(C(=O)C1CC(=O)N(c2ccccc2C(C)CC)C1)C1CCS(=O)(=O)C1 (stereo not drawn) | -2.13
O=C(c1ccccn1)N1N=C2/C(=C/c3ccc(F)cc3)CCCC2C1c1ccc(F)cc1 (stereo not drawn) | -54.3
COCCNS(=O)(=O)c1ccc(-c2ccc(S(=O)(=O)NCCOC)cc2)cc1 | -17.4
CCCOc1ccc(C(NC(=O)CC(C)C)NC(=O)CC(C)C)cc1OC | 9.86
Cc1cccc(C)c1NC(=O)CN(C)C(=O)CCC(=O)c1ccccc1 | -7.93
COc1ccccc1/C=C/c1onc(C)c1S(=O)(=O)N1CCC(C(=O)NC2CCCCCC2)CC1 | 12.5
O=C(Nc1ccc(Cl)c([N+](=O)[O-])c1)c1ccc2c(c1)OCCO2 | 7.9
COc1ccc2c(c1)c(CC(=O)Nc1cc(C)ccc1C)c(C)n2C(=O)c1ccc(Cl)cc1 | 4.86
O=C(O)c1ccccc1SCC(=O)N1c2ccccc2Sc2ccccc21 | 10.9
CN(C(=O)c1cccc(N2C(=O)C3CC=CCC3C2=O)c1)C1CCCCC1 (stereo not drawn) | -4.95
Cc1ccc(C(=O)NCc2ccc(Cl)cc2)o1 | -20.2
[Br-].c1sc2[n+](c1C13CC4CC(CC(C4)C1)C3)CCS2 | 17.7
COc1cccc(C(=O)Nc2ccc3ccccc3c2)c1 | 0.35
COc1ccc(N(CC(=O)NCc2ccc(C)cc2)S(=O)(=O)c2c(C)noc2C)cc1 | 12.1
COc1ccccc1C(=O)N/C(=C/c1ccc2c(c1)OCO2)C(=O)Nc1ccc(C(=O)O)cc1 | -2.88
Cc1cc(C)n2nc(-c3ccc(F)cc3)nc2n1 | -2.95
CNC(=S)N/N=C/c1cn(CCOc2ccc(OC)cc2)c2ccccc12 | -3.06
O=C(O)CCC(=O)N1N=C(c2ccco2)CC1c1cccs1 (stereo not drawn) | 24.5
Cc1ccc(OCC(=O)N2N=C(c3ccncc3)CC2(O)C(F)(F)F)cc1C (stereo not drawn) | 14.4
Nc1c2nc(-c3ccccc3Cl)[nH]c(=O)c2nc(=O)n1-c1ccccc1 | -26.7
CCN(CC)C(=O)c1ccc(NC(=O)CNC(C)c2cccc3ccccc23)cc1 (stereo not drawn) | 8.74
